Test results from ChEMBL document CHEMBL4888484, “Replenishing the malaria drug discovery pipeline: Screening and hit evaluation of the MMV Hit Generation Library 1 (HGL1) against asexual blood stage Plasmodium falciparum ,using a nano luciferase reporter read-out” (2022).
The campaign covered roughly 150,000 compounds. About 540 (0.36%) showed an effect of 50% or more. The list shows a part of the results.

system: Plasmodium falciparum; experiment: Primary screen in NF54 nanoGlo assay, in single point, at 2uM, 72h; a lower Z score goes with more inhibition; format: functional, Erythrocyte; details: timepoint 72 hour

Structure (SMILES) | % Inhibition | Z score
O=S(=O)(c1ccc(Cl)cc1)N1CCO[C@H]1C(Cl)(Cl)Cl | -10% | 1.62
N#C[C@@H]1CC[C@H](NC(=O)C2CC3CCC2CC3)C1 (some centres not stated) | -6% | 1.13
CCc1nnc(-c2coc(S(=O)(=O)N3CCC(C)CC3)c2)o1 | -7% | 0.88
CCOC[C@H]1CCN(Cc2ccc(CO)c3c2OC(F)(F)O3)C1 | -5% | 0.67
CC[C@](C)(NC(=O)c1ccc(C)nc1)c1nc(C)cs1 | 7% | -0.87
CC(C#N)CNC1CC2(C1)CC2NC(=O)OC(C)(C)C (configuration not stated) | -11% | 1.48
CCCCCn1c(NCc2ccccc2O)nc2ccccc21 | -4% | 0.51
Clc1ccc(CCNc2nc3cc(Cl)c(Cl)cc3n3cnnc23)cc1 | 14% | -2.24
Nc1ncnc(N2Cc3cccc(Br)c3C2)c1Cl | 0% | 0
Cc1ccc(NCc2noc(C3CC3)n2)cc1OCC1CCOCC1 | -5% | 0.75
CCCc1cc(C(=O)N[C@H]2CCOC[C@@H]2OCC(=O)N(C)C)no1 | -13% | 2.05
CC1CCC(C(=O)N2CCC(OCc3ccc(F)cc3)CC2)O1 (configuration not stated) | 1% | -0.22
O=C(CNC(=O)c1ccc(F)cc1F)Nc1nc2cc3c(cc2s1)OCCO3 | -22% | 1.89
CC(C)Cc1cnc(NC(=O)NCCN(C)C)s1 | -9% | 1.61
Cc1cc(C(=O)N[C@@H](CO)c2ccnn2C)nn1C(F)F | -4% | 0.48
O=C(CCc1ccccc1)N1CC(N2C(=O)COC2=O)C1 | -6% | 0.66
Cc1nc(C)c(C(=O)Nc2cccc3c2CCN3S(C)(=O)=O)o1 | -8% | 1.02
CC(Nc1ccn(-c2ccccc2)n1)C1CCOC1 (configuration not stated) | -15% | 1.29
Cc1ccc(-c2noc([C@@H]3COCCO3)n2)c(F)c1 | 1% | -0.29
CCn1cnnc1CNC(=O)Nc1ccc(COC2CCCC2)cc1 | -16% | 1.98
CCN(CC)c1cc(C)nc2nc(CN3CCN(c4ccccc4F)CC3)nn12 | -15% | 1.96
Cc1scc(C(=O)Nc2nccs2)c1C | -11% | 1.04

Structure (SMILES) | % Inhibition | Z score
CCS(=O)(=O)N[C@@H](C)c1ccc(OCC2CC2)c(F)c1 | -4% | 0.62
O=C(c1ccccc1O)N1N=C(C2CCCCC2)C[C@]1(O)C(F)(F)F | -7% | 1.28
COc1ccccc1C(=O)N1CCC2(CC1)C(=O)N(CC(=O)NCc1ccccc1)CN2c1ccccc1 | 8% | -0.76
CN1CCC(NC2(c3cccc(F)c3)CC2)CC1 | -6% | 0.72
O=C(Nc1ccc(F)cc1F)N1CCC[C@H]1c1cccs1 | -8% | 1.58
N#Cc1ccc(C(=O)Nc2cccc(C(=O)N3CCC[C@H]3C(=O)NC3CCCC3)c2)cc1 | 10% | -1.11
O=C(COc1ccccc1)Nc1ccc(C(=O)NC[C@H]2COc3ccccc3O2)cc1 | -15% | 2
CC(C)(C)OC(=O)N[C@H]1CCN(Cc2ccc(F)cc2C#N)C1 | 1% | -0.25
Cc1cc(=O)[nH]c(N2CCC(NC(=O)c3c(C)n[nH]c3C)CC2)n1 | -5% | 0.83
COc1cccc(CNC2=NCCNC23CCN(S(=O)(=O)c2c(C)cc(C)cc2C)CC3)c1 | 10% | -1.24
CCc1sc2nc(-c3ccccc3)cn2c1-c1ccc(Br)cc1 | -10% | 1.34
CCn1ccnc(Oc2cnc3ccccc3c2)c1=O | -13% | 1.8
O=C([C@@H]1CCCO1)N1CCCc2cccc(Cl)c21 | 14% | -1.53
CCc1ccc(CN2CCC3(CC2)C[C@@H]3C(=O)N2CCCN(C)CC2)cc1 | -12% | 1.57
Cn1nccc1COc1ccccc1N | 34% | -3.88
CCc1cccc(S(=O)(=O)N(C)[C@@]2(C#N)CCOC2)c1 | 0% | -0.02
C[C@@H](Cc1ccc(F)c(Br)c1)C(=O)Nc1nnn[nH]1 | 4% | -0.52
CC1CCN(Cc2nc3cc(NC(=O)C4CCCCC4)ccc3n2C)CC1 | -18% | 1.63
Cc1csc([C@H]2CCCN(Cc3ncccc3C(=O)O)C2)n1 | 0% | -0.04
CCCC(CCC)S(=O)(=O)Cc1nc(-c2ccco2)no1 | -4% | 0.42
CCCN(CCC)C(=O)Nc1ccc(OC)c(OC)c1 | -1% | 0.19
c1cncc(CN(Cc2ccco2)CC2CCOCC2)c1 | -7% | 0.94

Structure (SMILES) | % Inhibition | Z score
COc1ccc([N+]2=C3CCCCN3C[C@]2(O)c2ccc(C)cc2)cc1 | -9% | 1.1
COc1cccc([C@H]2OCC(C)(C)n3c(-c4ccc(C)cc4)c4c(=O)n(C)c(=O)n(C)c4c32)c1 | 10% | -1.8
COC(=O)c1ccc(NC(=O)N2CCCCC[C@H]2c2cccc(C)c2)cc1 | -14% | 1.82
Cc1c(-c2ccccc2)[nH]c2c(CNC(=O)C3CCN(C)CC3)cc(Cl)cc12 | 0% | 0.07
O=C(O)c1ccc(Cn2nnn(C3CC3)c2=O)cc1 | 13% | -1.35
COc1ccc([C@H](C)NC(=O)C2CCN(c3cnc4nccnc4c3)CC2)cc1 | -3% | 0.53
CC1(C)C2OCCC2C1OC(=O)C1CCCN(C(N)=O)C1 (configuration not stated) | 20% | -2.52
c1nc2cc(NCc3nc(C4CCCC4)no3)ccc2s1 | -5% | 0.96
Cc1cccc(CN(Cc2cnn(C)c2)Cc2cccc(C)n2)n1 | 5% | -0.64
O=S(=O)(c1ccnc(NC[C@H]2CCCCC2(F)F)c1)N1CCCC1 | -5% | 0.9
COc1ccccc1-c1nc(CN2CCN(c3ncnc(C)c3C)CC2)c(C)o1 | 4% | -0.6
CC(C)n1cc(NC(=O)[C@@H]2CCC(=O)N2C)cn1 | 3% | -0.26
CC1CCC(NC(=O)CN2CC[C@H](O)C23CCCC3)CC1 (some centres not stated) | 3% | -0.5
CCN1CCC[C@@H]1CNS(=O)(=O)c1cc(-c2nc(-c3cccc(Cl)c3)cs2)n(C)c1C | -10% | 1.17
CN(C)C1CCCC1Oc1ncc(Cl)cn1 (configuration not stated) | -9% | 1.37
Cc1nc(NC(=O)Cn2nc(-n3ccc4ccccc43)ccc2=O)sc1C | -2% | 0.37
c1ccc(-c2nc(-c3nccn3CCCc3nnn[nH]3)co2)cc1 | 2% | -0.32
COCCn1cc(C(=O)NC2CCCCCCC2)c(=O)c(C(=O)N2C[C@@H](C)O[C@@H](C)C2)c1 | -19% | 2.39
CCN1CCCN(S(=O)(=O)c2ccnn2C(C)C)CC1 | -16% | 1.86
COc1cc(F)ccc1-c1ccc2nc[nH]c2c1 | -11% | 2.01
O=C1N(CCC2CCCCC2)CCC[C@@]1(O)CN1CCc2[nH]ncc2C1 | -8% | 0.93
CC1CCN(C(=O)c2ccc(Br)cc2F)C2CCCCC12 (configuration not stated) | -1% | 0.13

Structure (SMILES) | % Inhibition | Z score
Cn1ccc(C(=O)Nc2nc(-c3cccs3)cs2)n1 | -18% | 2.37
CCc1cccc(NC(=O)[C@H](CC(C)C)NC(N)=O)c1 | -6% | 0.59
CC[C@@H](CO)NC(=O)c1cc(C)cc(F)c1 | 29% | -3.9
CN(c1ccc(F)cc1)S(=O)(=O)c1ccc(Cl)c(C(=O)N2CCS(=O)(=O)CC2)c1 | 10% | -1.62
COc1c(CNC(=O)[C@@H]2CCc3cccc(O)c32)oc2ccccc12 | -7% | 0.78
COc1ccc2[nH]c3c(c2c1)CCN(C(=O)c1ccc(C(F)(F)F)c(F)c1)[C@@H]3c1cc(F)c(F)cc1F | -5% | 0.54
Cn1ccc(NS(=O)(=O)c2ccc3c(c2)S(=O)(=O)NC=N3)n1 | -15% | 2.04
C[C@]1(C(=O)Nc2nnc(C3CC3)s2)CC1(Cl)Cl | 0% | -0.04
COC(=O)[C@H](C)N(Cc1ncnn1C)C1CCC1 | -18% | 2.06
CO[C@](C)(C(=O)NCc1nc(CO)cs1)C1CC1 | -7% | 0.95
Oc1cc(Cn2cc(COCc3ccccc3)nn2)ncn1 | 0% | 0.02
CCOC(=O)c1sc2nc(-c3ccc(OC(C)C)cc3)c(NC3CCCC3)n2c1C | -10% | 1.19
COc1ccc(C(=O)Nc2sc3c(c2C)CCCC3)nn1 | 9% | -1.53
C[C@H](O)CC(C)(C)CNC(=O)NCc1cccc(C(F)(F)F)c1 | -6% | 0.9
Cc1noc(-c2cccn3c(CNC(=O)c4c(C)noc4C)nnc23)n1 | -12% | 1.53
COc1ccc(-n2cc([C@H](C)Nc3nnc(C4CC4)o3)cn2)cc1 | -6% | 1
O=C(Nc1cccnc1)N1CC[C@@H](C(F)(F)F)C2(CCOCC2)C1 | -15% | 1.54
CCN(CC)CCCC(C)NC(=O)CC(c1ccc(Cl)cc1)c1cn(Cc2ccc(C)cc2)c2ccccc12 (configuration not stated) | 12% | -1.18
CC(C)(C)OC(=O)N1CCCCC[C@H]1c1noc(-c2cnccn2)n1 | 9% | -1
CCN1C(=O)Cc2cc(NC(=O)Nc3ccc4c(c3)OCO4)ccc21 | 3% | -0.39
